# Data as given in the supplement of paper PMC10338343.
# ± gives the standard deviation. In all, about 6,600 sequences were measured (“pre-steady-state target cleavage rate”: median about 0.07, highest 2% from about 0.72 on). Only a part is listed here, and it is no random draw.
# Tested on: MIWI (PIWIL1) piRISC loaded with Kctd7 piRNA (30 nt)
# Experiment: pre-steady-state target cleavage rate (min^-1); MIWI and MILI are mouse PIWI proteins and EfPiwi is from a freshwater sponge; tags in brackets are library labels; higher = faster piRNA-guided slicing of the target
# Conditions: guide: Kctd7 piRNA 5'p-UGUUAAUCUCUCAGAGAAGGUGACAGUGAU; auxiliary factor: 500 nM mouse GTSF1
# Summary of the method: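 In HEPES–potassium acetate buffer at 33 °C, […] transcribed, DNA-blocked target RNA library was mixed with 1 nM active affinity-purified piRISC carrying one synthetic guide, with or without 500 nM GTSF1 partner protein, for 0–8 or 0–960 min. Uncleaved targets were sequenced and normalised to depth and to weakly complementary targets; three trials were pooled and k3 was capped at 0.0001 min^-1. The pre-steady-state cleavage rate followed from a burst-and-steady-state fit.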
# 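Also: 1 nM active piRISC with 0.1 nM target library at 33 °C single turnover.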
row,Sequence,pre-steady-state target cleavage rate
1,UAGUGAGUCACCUUCUCUGAGAGCAUUAACA,0.345 ± 0.033
2,UAGUGACUCACCUUCUCUGAGAGAUUAACU [g2:g23:cont:t1U],0.305 ± 0.034
3,UACCUGUCACCUUCUCUGAGAGAUUAACA,0.773 ± 0.051
4,UAGUGACUCACCUUCUCUGAGAGUUAAACA,0.126 ± 0.016
5,UUCACUGUCACCUUCUGUGAGAGAAUAACA,0.166 ± 0.028
6,UACACUGUCACUUUCUCUGAGAGAUUAACA,0.725 ± 0.025
7,UAGACUGACACCUUCUCUGAGAGAUAAACA,0.3 ± 0.03
8,UAGACUGUCACCUCUCUCUGAGAGAUUAACA,0.409 ± 0.044
9,UAGUCUGUCACCUUCUCUGAGAGAAUUACA,0.278 ± 0.063
10,AUCAGUGUCACCUUCUCUGAGUGAUUAACA,0.0468 ± 0.011
11,UUCACUGUCACCUUCACAGAGAGAUUAACA,0.0684 ± 0.012
12,UUCACUGUCACCUUCUCUGAGUCUUUAUGA,0.00676 ± 0.0031
13,UAGUGACUCACCUUCUCUGAGAAAUUAACA,0.22 ± 0.031
14,UAGUGAGUCACCUUCUCUGUGAGAUAAACA,0.119 ± 0.013
15,UUCACUGUCACCUUCUCUGAGAGUUUAAGA,0.463 ± 0.12
16,AUCACUGUCACCUUCUCUGAGAGUAUUAACA,0.557 ± 0.044
17,UAGUGACUCACCUUCUCUGAGAGAUUAACG [g2:g23:cont:t1G],0.403 ± 0.033
18,UAGUCUGUCACCUUCAGUGAGAGAUUAACA,0.045 ± 0.0062
19,UAGUGAGUCACCUUCUCUGACAGAUUAAGA,0.0174 ± 0.005
20,UUCUCUGUCACCUUCUCUGAGAGAAUAACA,0.311 ± 0.046
21,UAGUCUGCCACCUUCUCUGAGAGAUUAACA,0.631 ± 0.028
22,UAGUGACAGUCCUUCACUGAGUGAUUAACA,0.00526 ± 0.0028
23,UACACUGUCACCUUCGCUGAGAGAUUAACA,0.44 ± 0.042
24,UAGUGACAGACCUUCACUGAGAGAUUAACA,0.0809 ± 0.012

row,Sequence,pre-steady-state target cleavage rate
1,UAGUGACAGACCUUCUCUGAGAGAUUAAGA,0.0708 ± 0.014
2,UAGACACUCACCUUCUCUGAGAGAUUUUGA,0.0632 ± 0.014
3,UUCACUGUCACCUUCUCUGAGAGUUAUUGA,0.378 ± 0.089
4,UAGACUGUCACCAAGUCUGAGAGAUUAAGA,0.00633 ± 0.0032
5,UAGUGUGUCACCUUCUGUCAGAGAUUAACA,0.0146 ± 0.0045
6,UUCACUGUCACCUUCUGAGAGAGAUUAACA,0.0751 ± 0.014
7,UAGUGAGUCACCUAUCUCUGAGAGAUUAACA,0.365 ± 0.032
8,UAGUGAGUCAGCUUCUCUGAGAGAUUAUGA,0.0271 ± 0.0081
9,AUCACUGUCACCUUCUCACAGAGAUUAUGA,0.00581 ± 0.004
10,UUCAGUGUCUCCUUCUCUGAGAGAUUAACA,0.501 ± 0.033
11,UAGUGACAGUCCUACUCUGAGAGAUUAACA,0.00907 ± 0.0022
12,UACAGUGUCACCUUCUGUGAGAGAUUAACA,0.662 ± 0.028
13,AUCACUGUCACCUUCUCUGAGAGAUUAAGCA,0.279 ± 0.032
14,UAGACUGGUCACCUUCUCUGAGAGAUUAACA,0.716 ± 0.047
15,UACACUGUCAGCUUCUCUGAGAGAAUAACA,0.305 ± 0.058
16,UAGUCUGACACCUUCUCUGAGUGAUUAACA,0.0171 ± 0.0018
17,UACACUGUCACGUUCUCUCAGAGAUUAACA,0.0587 ± 0.0073
18,UAGUGACAGUGGUUCUCUGAGAGAUUAACG [g2:g18:cont:t1G],< 0.0001
19,UUCACUGUCACCUUCUCUGUGAGAUUAAGA,0.0667 ± 0.015
20,UAGUGACUCACCUUCUCUGUGAGAUAAACA,0.0613 ± 0.01
21,UAGUGAGUCAGCUUCUCUGAGAGAUUAAGA,0.149 ± 0.029
22,UAGUGACUCACGUUCUCUGAGAGAUUAACA,0.398 ± 0.03
23,UAGUGACAGUCCUUCUCUGAGAGAUCUAACA,0.00933 ± 0.0031
24,UAGACUGUCACCUUCUCUGAGAGAUUACA,0.286 ± 0.047

row,Sequence,pre-steady-state target cleavage rate
1,UUCACUGUCACCUUCUCAGAGACAUUAACA,0.138 ± 0.019
2,UUCACUGACACCUUCUCUGAGACAUUAACA,0.172 ± 0.027
3,UAGUGACAGACCAUCUCUGAGACAUUAACA,0.00493 ± 0.0025
4,UAGUGAGUCACCUUCUCUGAGAGAUUACA,0.157 ± 0.024
5,UAGUGUGUCACCUUCUCUGAGAGAUAUUGA,0.039 ± 0.014
6,UAGUGACUCACCUUCUCUGUCUGAUUAACA,< 0.0001
7,UACACUGUCACCUUCUCUGAGACAAUAACA,0.0245 ± 0.0058
8,UUCACUGUGUGCUUCUCUGAGAGAUUAACA,0.0554 ± 0.0083
9,UAGUGUGUCACCUUGUCUCAGAGAUUAACA,0.0235 ± 0.0036
10,AUCACUGUGCACCUUCUCUGAGAGAUUAACA,0.607 ± 0.054
11,UAGUGUGUCACCUUCUCUGAGAGAUUAAGA,0.237 ± 0.037
12,AUCACUGUCACCUUCUCUGUGACAUUAACA,0.0488 ± 0.0092
13,UAGUCUGUCAUCCUUCUCUGAGAGAUUAACA,0.292 ± 0.022
14,UAGUCUCUCACCUUCUCUGAGAGUUUAACA,0.308 ± 0.043
15,UAGUGACACACCUUCUCCGAGAGAUUAACA,0.205 ± 0.047
16,UAGUGACUCACCUUCUCUGAGACAUAAACA,0.0406 ± 0.0093
17,UAGUGACACACCUUCUGUGAGAGAUUAUCA,0.018 ± 0.0057
18,UAGUCUGAGACCUUCUCUGAGAGAUUAACA,0.437 ± 0.027
19,UACACUGUCAGCUUCUCUGACAGAUUAACA,0.0354 ± 0.0092
20,UAGUGAGUCACCUUCUCUGAGAGAUAAACA,0.418 ± 0.051
21,UAGUGAGUCACCUUCAGAGAGAGAUUAACA,0.00682 ± 0.0046
22,UACACAGUCACCUUCUCUGAGAGAUUAUCA,0.149 ± 0.026
23,UAGUCUGUCACCUUCUCUGAGAGAUUGAACA,0.27 ± 0.036
